# Reference: PubChem BioAssay AID1645882 (National Center for Advancing Translational Sciences (NCATS), 2021)
# The whole screen tested about 16,000 compounds, of which about 120 (0.75%) were called active. Not shown: some 4% with an inconclusive outcome. The call rests on the fitted dose curve; in most records, active means well fitted inhibition curve with a large enough effect; inconclusive means small, poorly fitted or top-dose-only effect; inactive means no such curve, though single readings can be large or run the other way. This is one part of the list.
# Biological target: Rap guanine nucleotide exchange factor 3 (Homo sapiens) (UniProt O95398)
# Assay: Validation qHTS for antagonist of cAMP-regulated guanine nucleotide exchange factor 3 (EPAC1);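 further: plate controls were DMSO for no effect and ATA control for full effect; nearly all actives have a fitted effect of over 75% in size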
# Details: EPAC1 Rap1B-BODIPY-GDP exchange, fluorescence; activity change, negative = inhibition: at the top concentration
# In short: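 Nucleotide exchange followed as fluorescence loss when BODIPY-GDP leaves Rap1B (480 nm excitation, 540 nm emission), read at 5 min intervals over 30 min. Reaction: 100 nM EPAC1, 250 nM RAP1B-BODIPY-GDP, 50 uM GDP; ATA and DMSO define normalization.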
# Sequence of UniProt O95398 (O95398 whole entry, looked up): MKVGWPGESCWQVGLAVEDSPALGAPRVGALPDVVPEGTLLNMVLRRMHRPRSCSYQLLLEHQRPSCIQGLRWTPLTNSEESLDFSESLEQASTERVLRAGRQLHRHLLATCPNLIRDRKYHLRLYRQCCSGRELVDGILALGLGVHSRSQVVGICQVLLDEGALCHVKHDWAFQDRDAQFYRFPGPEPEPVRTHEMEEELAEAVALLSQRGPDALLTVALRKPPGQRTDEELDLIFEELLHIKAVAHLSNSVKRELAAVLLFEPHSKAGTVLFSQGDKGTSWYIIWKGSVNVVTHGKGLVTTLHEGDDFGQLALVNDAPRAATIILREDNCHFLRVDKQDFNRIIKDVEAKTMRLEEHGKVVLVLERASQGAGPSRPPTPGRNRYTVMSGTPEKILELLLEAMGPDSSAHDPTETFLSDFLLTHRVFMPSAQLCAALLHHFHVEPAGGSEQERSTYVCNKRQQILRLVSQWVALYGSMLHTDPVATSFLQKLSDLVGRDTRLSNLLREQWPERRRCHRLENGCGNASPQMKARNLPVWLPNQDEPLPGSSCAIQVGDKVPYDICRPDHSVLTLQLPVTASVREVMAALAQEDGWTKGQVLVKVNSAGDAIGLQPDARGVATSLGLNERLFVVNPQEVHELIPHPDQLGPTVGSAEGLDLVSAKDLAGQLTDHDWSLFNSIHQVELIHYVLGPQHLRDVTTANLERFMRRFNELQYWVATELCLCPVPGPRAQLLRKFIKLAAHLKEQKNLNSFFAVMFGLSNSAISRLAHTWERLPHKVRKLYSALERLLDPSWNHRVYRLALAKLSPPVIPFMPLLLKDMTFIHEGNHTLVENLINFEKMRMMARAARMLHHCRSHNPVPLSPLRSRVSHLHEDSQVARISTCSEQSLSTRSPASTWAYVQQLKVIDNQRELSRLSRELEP
row,Compound,"activity change, negative = inhibition"
1,CC(C)(O)C1O[C@H]2CC[C@@]3(C)[C@@](O)(CC[C@H]4Cc5c([nH]c6ccccc56)[C@@]43C)C2=CC1=O (stereo not given in full),inactive
2,CCN1C[C@@]2(COC)C3[C@@H](OC)C4[C@@H]1C3([C@@H]1C[C@]3(O)[C@H](OC(=O)c5ccccc5)[C@@H]1[C@]4(OC(C)=O)[C@@H](O)[C@@H]3OC)[C@H](OC)C[C@H]2O,inactive: 1.02% [at 75.8 µM]
3,CN1C2CCC1CC(OC(c1ccc(F)cc1)c1ccc(F)cc1)C2 (stereo not given),inactive: 31.2%
4,O=C(O)CC[N+](=O)[O-],inactive
5,O=C1NCN(c2ccccc2)C12CCN(CCCOc1ccc(F)cc1)CC2,inactive
6,Oc1ccc2c3c1O[C@H]1[C@@H](O)CC[C@@]4(O)[C@@H](C2)N(CC2CCC2)CC[C@]314,inactive: 6.08%
7,c1ccc([C@H]2CNCc3ccccc32)cc1,inactive: 15.9%
8,C/C=C/c1ccc2c(c1)OCO2,inactive
9,OCc1cnc[nH]1,inactive: -5.91% [at 75.8 µM]
10,C[C@@H]1O[C@@H](O[C@H]2C[C@@H](O)[C@]3(CO)[C@@H]4C(CC[C@]3(O)C2)[C@@]2(O)CC[C@H]([C@@H]3COC(=O)C3)[C@@]2(C)C[C@H]4O)[C@H](O)[C@H](O)[C@H]1O (stereo not given in full),inactive: 7.04% [at 75.8 µM]
11,Clc1ccccc1-c1cncnc1NCCc1cnc[nH]1,inactive: -0.347%
12,CCCN(C/C=C\I)[C@@H]1CCc2ccc(O)cc2C1,inactive: 4.22%
13,CC[C@@]1(O)CC(O)c2c(cc3c(c2O)C(=O)c2c(O)ccc(O)c2C3=O)C1C(=O)OC (stereo not given in full),inactive: 25.5%
14,N#CC(O[C@@H]1OC(COC2OC(CO)C(O)C(O)[C@@H]2O)C(O)C(O)C1O)c1ccccc1 (stereo not given in full),inactive: 16.1%
15,CC1(C)C(O)CC(O)[C@]2(C)C1CC(=O)[C@]1(C)C2CC[C@@]2(C)C(c3ccoc3)OC(=O)C3OC321 (stereo not given in full),inactive: -10%
16,COc1ccc2c(c1OC)CN1CCc3cc4c(cc3C1C2)OCO4 (stereo not given),inactive: 6.74% [at 75.8 µM]
17,CCCC(C)(COC(N)=O)COC(=O)NC1CC1 (stereo not given),inactive: 10.8%
18,O=C(Oc1ccccc1)N1CCC[C@@]2(CCN(C(c3ccccc3)c3ccccc3)C2)C1,inactive: 14.8%
19,C[CH2][Hg][S]c1ccccc1C(=O)O,inactive: -17.2%
20,O=C1CC2OCC=C3CN4CC[C@@]56c7ccccc7N1C5C2C3CC46 (stereo not given in full),inactive: 17.4%
21,CCN(CC)C(=O)N[C@H]1C[C@@H]2c3cccc4[nH]cc(c34)C[C@H]2N(C)C1,inactive: 1.44%
22,COP(=S)(OC)Oc1ccc(S(=O)(=O)N(C)C)cc1,inactive: 10.4%
23,O=c1ccc2cc(OC3OC(CO)C(O)C(O)C3O)c(O)cc2o1 (stereo not given),inactive: 4.95%
24,CC(=O)N1CC[N+](C)(C)CC1,inactive
25,COc1ccc2c(c1)[C@@]13CCCC[C@H]1[C@@H](C2)NCC3,inactive: -2.15% [at 75.8 µM]
26,CC[C@@H](CO)NC(=O)[C@@H]1C=C2c3cccc4c3c(cn4C)C[C@H]2N(C)C1,inactive
27,COc1ccc(NC(=O)N2CC[C@@]3(CCCN(C(=O)Oc4ccccc4)C3)C2)cc1,inactive: 14.5%

row,Compound,"activity change, negative = inhibition"
1,NC(CO)Cc1ccccc1 (stereo not given),inactive: 8.96%
2,N#Cc1cccc(NC(=O)N2CC[C@@]3(CCCN(C(=O)Oc4ccccc4)C3)C2)c1,inactive: 12.5%
3,CCN1C[C@]2(C)CC[C@H](OC)[C@]34C5C[C@@H]6CC[C@@](O)(C5C(=O)O6)C(C13)[C@@H](OC(=O)c1ccccc1)C24,inactive: 16.6%
4,c1ccc(CN2CCNCC2)cc1,inactive: 22.3% [at 606 µM]
5,CN1C(=O)CN=C(c2ccccc2)c2cc(Cl)ccc21,inactive: 9.55%
6,CC(=O)[C@@]1(O)CC[C@H]2[C@@H]3CCC4=CC(=O)CC[C@]4(C)C3(F)[C@@H](O)C[C@@]21C (stereo not given in full),inactive: 9.32%
7,Cc1cc([C@@H]2CCCN2C)on1,inactive: -5.24% [at 75.8 µM]
8,C[C@]12CC[C@H](O)CC1=CC[C@@H]1[C@@H]2CC[C@]2(C)C(=O)CC[C@@H]12,inactive: 19.4%
9,CC(Cc1ccccc1)NCc1ccccc1Cl (stereo not given),inactive: 1.94%
10,Clc1ccc2c(c1)C(c1ccccc1)=NCc1nncn1-2,inactive: 13.5%
11,CC(C)Nc1nc(Cl)nc(NC(C)C)n1,inactive: 4.24%
12,c1ccc2c(c1)OCC(C1=NCCN1)O2 (stereo not given),inactive
13,CC1OC(O[C@@H]2C(O)CC(O[C@@H]3C(O)C[C@@H](OC4CC[C@]5(C)[C@H](CC[C@H]6[C@@H]5CC[C@]5(C)C(C7=CC(=O)OC7)C(O)C[C@@]65O)C4)OC3C)OC2C)CC(O)C1O (stereo not given in full),inactive: 18.1%
14,Nc1ccc([N+](=O)[O-])cc1,inactive: 32.1% [at 320 µM]
15,O=S1OCC2C(CO1)C1(Cl)C(Cl)=C(Cl)C2(Cl)C1(Cl)Cl (stereo not given),inactive: 17.1%
16,CCCCSP(=O)(SCCCC)SCCCC,inactive: 17%
17,CC(C)C(O)(C(=O)OC[C@@H]1CC[N+]2([O-])CCCC12)C(C)O (stereo not given in full),inactive: 21.9%
18,N#Cc1c(Cl)c(Cl)c(Cl)c(C#N)c1Cl,inactive: -17.2%
19,CCCN(CCC)[C@H]1CCc2c(F)ccc(O)c2C1,inactive: -6.4% [at 75.8 µM]
20,CC1C(=O)OC2C(O)C34C5OC(=O)[C@@]3(OC3OC(=O)[C@H](O)[C@]34C(C(C)(C)C)C5O)[C@]12O (stereo not given in full),inactive: 3.75%
21,CCCC[N+]1(C)C2CC(OC(=O)[C@H](CO)c3ccccc3)CC1C1OC12 (stereo not given in full),inactive: 7.17% [at 75.8 µM]
22,c1ccc(C2CNCc3ccccc32)cc1 (stereo not given),inactive: -8.5%
23,CC(N)[C@@H](O)c1ccccc1 (stereo not given in full),inactive: 22%
24,Cc1nnc2n1-c1sc(CCC(=O)N3CCOCC3)cc1C(c1ccccc1Cl)=NC2,inactive
25,Oc1cc(Cl)c(Cl)cc1Cl,inactive: 10.6%
26,CN(C)CCc1c[nH]c2ccccc12,inactive: 9.27% [at 606 µM]
27,C/C=C(/C)C(=O)O[C@H]1C(C)=C2[C@H]([C@@H]1OC(=O)CCCCCCC)[C@@](C)(OC(C)=O)C[C@H](OC(=O)CCC)[C@@]1(O)[C@H]2OC(=O)[C@@]1(C)O,inactive: 11.5%

row,Compound,"activity change, negative = inhibition"
1,CC[N+]1(C)CCCC(OC(=O)C(O)(c2ccccc2)c2ccccc2)C1 (stereo not given),inactive: 12.8%
2,Cc1o[nH]c(=O)c1C[C@H](N)C(=O)O,inactive
3,Clc1ccc(C2=CCC[C@H]3CC[C@@H]2N3)cn1,inactive: -6.37%
4,Oc1ccc2c3c1O[C@H]1c4[nH]c5ccccc5c4C[C@]4(O)[C@H](C2)N(CC2CC2)CC[C@@]314,inactive: 7.03%
5,c1ccc2cc(CC3=NCCN3)ccc2c1,inactive: 4.07% [at 75.8 µM]
6,COP(=S)(OC)Oc1ccc(Sc2ccc(OP(=S)(OC)OC)cc2)cc1,inactive: 10.3%
7,CCCCCCC(=O)CCCCCC/C=C/C[C@@H](O)[C@H](O)[C@@](N)(CO)C(=O)O,inactive
8,CCC(C)C(=O)OC1C(O)C2C(CN3CC(C)CCC3[C@]2(C)O)C2C[C@]34O[C@@]5(O)C(OC(=O)C(C)(O)C(C)O)CCC3(C)C5C(OC(C)=O)C(OC(C)=O)C4[C@@]21O (stereo not given in full),inactive: 16.7%
9,c1ccc(N2CC3(CCNCC3)C2)cc1,inactive: 8.68%
10,CCOP(=S)(OCC)Oc1nc(Cl)c(Cl)cc1Cl,inactive: 12.9%
11,C=C1C2CC[C@@]3(C)C(c4ccoc4)OC(=O)C[C@@]13OC1CC(=O)C(C)(C)C(C(OC(C)=O)C(=O)OC)[C@@]12C (stereo not given in full),inactive: -7.61%
12,CN(C(=O)Cc1ccccc1)[C@H](CN1CCCC1)c1ccccc1,inactive
13,CCCN1CCO[C@@H]2c3cc(O)ccc3OC[C@H]21,inactive
14,C=C1C/C(=C/C)C(=O)O[C@@H]2CCN3CC=C(COC(=O)[C@]1(C)O)[C@@H]23,inactive: 17.1%
15,COc1ccc2c(c1OC)C(=O)O[C@H]2[C@@H]1c2cc3c(cc2CCN1C)OCO3,inactive
16,CC1(C)CC/C(=C/c2ccc(Cl)cc2)C1(O)Cn1cncn1 (stereo not given),inactive: 20.9% [at 320 µM]
17,COC(=O)c1cc2c(cn1)[nH]c1ccccc12,inactive: 12.2%
18,CC(C)(C)NC[C@@H](O)COc1cccc2[nH]c(C#N)cc12,inactive: 12.4%
19,CN[C@H]1C[C@@H](N)[C@H](O)[C@@H](O[C@@H]2O[C@H](CO)[C@H](O)[C@@H]3OC4(O[C@H]23)O[C@H](C(N)CO)[C@H](O)[C@H](O)[C@H]4O)[C@@H]1O (stereo not given in full),inactive
20,COc1ccc(CCN)cc1O,inactive: 11.7%
21,CN[C@@]1(c2ccccc2Cl)CCCCC1=O,inactive: 16.2%
22,O=C(O)[C@@H]1CCN1,inactive: -6.87% [at 75.8 µM]
23,O=C(NC(O)C(Cl)(Cl)Cl)NC(O)C(Cl)(Cl)Cl (stereo not given),inactive: 6.96%
24,C[C@](N)(CCP(=O)(O)O)C(=O)O,inactive: -6.44%
25,CC(N)C(O)c1ccc(O)c(O)c1 (stereo not given),inactive
26,CC(=O)NC1CCSC1=O (stereo not given),inactive
27,CCN(CC)CCN1C(=O)CN=C(c2ccccc2F)c2cc(Cl)ccc21,inactive: 5.72%

row,Compound,"activity change, negative = inhibition"
1,C[C@]12CCC3C(CC[C@H]4C[C@@H](O)CC[C@]34C)[C@@H]1CCC2=O (stereo not given in full),inactive: 16.7%
2,Oc1ccccc1-c1ccccc1,inactive: 8.5%
3,O=CN1CC2CC(C1)c1cccc(=O)n1C2 (stereo not given),inactive: 18.2%
4,CNC(=O)Oc1ccccc1OC(C)C,inactive: 20.5%
5,CC(=O)O[C@@H]1CN2CCC1CC2,inactive: 13%
6,CN1C2CCC1CC(OC(=O)c1cc(Cl)cc(Cl)c1)C2 (stereo not given),inactive: 0.203% [at 75.8 µM]
7,O=C(O)Cc1cnc[nH]1,inactive
8,c1ccc(N2CC[C@@]3(CCCNC3)C2)nc1,inactive: 11.7%
9,CCCN[C@@H]1CCc2c(OC)cccc2[C@@H]1C,inactive
10,c1ccc2c(c1)sc1ccccc12,inactive: 13%
11,O=P1(N(CCCl)CCCl)NCCCO1 (stereo not given),inactive
12,CNc1ccc2oc(C[C@@H]3OC4(CC[C@@H]3C)O[C@H]([C@@H](C)C(=O)c3ccc[nH]3)[C@H](C)C[C@H]4C)nc2c1C(=O)O (stereo not given in full),inactive: 2.4%
13,CCCn1c(C)c(C(=O)c2cccc3ccccc23)c2ccccc21,inactive: -4.25%
14,NC(=O)CS(=O)C(c1ccccc1)c1ccccc1 (stereo not given),inactive
15,CN1C(=O)CCS(=O)(=O)C1c1ccc(Cl)cc1 (stereo not given),inactive
16,CN(C)[C@@H]1C(=O)C(C(N)=O)=C(O)[C@@]2(O)C(=O)C3=C(O)c4c(O)cccc4[C@@](C)(O)[C@H]3[C@H](O)[C@@H]12,inactive
17,Cc1cccc(Cc2cnc[nH]2)c1C,inactive: 18%
18,CCCCC/C=C\C/C=C\C/C=C\CCCCCCC(=O)NCCO,inactive: 0.232% [at 15.3 µM]
19,CCc1cc(OC)c(C[C@@H](C)N)cc1OC,inactive: 26.2% [at 320 µM]
20,O=C1C=CC(=O)C=C1,inactive: 11.4% [at 75.8 µM]
21,CCC(=O)O[C@](Cc1ccccc1)(c1ccccc1)[C@H](C)CN(C)C,inactive: 12.9% [at 320 µM]
22,CCOP(=S)(OCC)Oc1ccc2c(C)c(Cl)c(=O)oc2c1,inactive: 8.51%
23,CCOC(=O)[C@]12Cc3cc4c(cc3[C@H]1N(Cc1ccccc1)C(=O)c1ccccc12)OCO4,inactive: -2.57%
24,C[C@@H](Cc1cccc(C(F)(F)F)c1)NCCCc1ccccc1,inactive: -12.3%
